Measured values from article PMC12820563.
The list shows a part of the results. The list includes weakly bound sequences.

What follows are sequences tested against T1, MBP-FoxP3dN (UniProt Q99JB6) (assay: PD-seq (MBP pull-down with sequencing)). Conditions: 20 mM Tris-HCl pH 7.5, 100 mM NaCl, 1.5 mM MgCl2, 0.4 uM protein, 0.1 uM dsDNA library, 30 min, room temperature, amylose pull-down; high values mean tight binding; double strand, one strand shown.
T1 sequence: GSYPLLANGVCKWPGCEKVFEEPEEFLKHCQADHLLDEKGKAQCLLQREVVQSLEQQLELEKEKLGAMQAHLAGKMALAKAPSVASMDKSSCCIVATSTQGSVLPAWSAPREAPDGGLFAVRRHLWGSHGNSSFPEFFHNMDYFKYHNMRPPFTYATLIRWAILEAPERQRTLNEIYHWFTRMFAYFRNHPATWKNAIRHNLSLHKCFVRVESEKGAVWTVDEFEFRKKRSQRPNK

Row | Sequence | binding signal (RPM ratio (pull-down/input))
1 | GATGATTGTTCTCCCAGCTGATGAATTTCGACGTTCGAGTAAACAAATTTTCCTAATCTTTCTGTTCAAGCGCCATCTAC | 0.582
2 | GATGATTGTTCTCCCAGCTGATGAATTGGTATACTCGAGTAAACAAATTTTCCTAATCTTTCTGTTCAAGCGCCATCTAC | 3.5
3 | GATGATTGTTCTCCCAGCTGATGAATTGCGGTTATCGAGTAAACAAATTTTCCTAATCTTTCTGTTCAAGCGCCATCTAC | 1.49
4 | GATGATTGTTCTCCCAGCTGATGAATTACATCGTTCGAGTAAACAAATTTTCCTAATCTTTCTGTTCAAGCGCCATCTAC | 0.715
5 | GATGATTGTTCTCCCAGCTGATGAATTACAGGCATCGAGTAAACAAATTTTCCTAATCTTTCTGTTCAAGCGCCATCTAC | 0.916
6 | GATGATTGTTCTCCCAGCTGATGAATTATCATATTCGAGTAAACAAATTTTCCTAATCTTTCTGTTCAAGCGCCATCTAC | 0.565
7 | GATGATTGTTCTCCCAGCTGATGAATTTTAACCATCGAGTAAACAAATTTTCCTAATCTTTCTGTTCAAGCGCCATCTAC | 0.364
8 | GATGATTGTTCTCCCAGCTGATGAATTATATCACTCGAGTAAACAAATTTTCCTAATCTTTCTGTTCAAGCGCCATCTAC | 1.05
9 | GATGATTGTTCTCCCAGCTGATGAATTTTACTACTCGAGTAAACAAATTTTCCTAATCTTTCTGTTCAAGCGCCATCTAC | 0.31
10 | GATGATTGTTCTCCCAGCTGATGAATTAGTAGTTTCGAGTAAACAAATTTTCCTAATCTTTCTGTTCAAGCGCCATCTAC | 1.93
11 | GATGATTGTTCTCCCAGCTGATGAATTCAGCGTGTCGAGTAAACAAATTTTCCTAATCTTTCTGTTCAAGCGCCATCTAC | 3.29
12 | GATGATTGTTCTCCCAGCTGATGAATTCGCAGGATCGAGTAAACAAATTTTCCTAATCTTTCTGTTCAAGCGCCATCTAC | 0.268
13 | GATGATTGTTCTCCCAGCTGATGAATTCTAACGTTCGAGTAAACAAATTTTCCTAATCTTTCTGTTCAAGCGCCATCTAC | 0.467
14 | GATGATTGTTCTCCCAGCTGATGAATTCAACGTATCGAGTAAACAAATTTTCCTAATCTTTCTGTTCAAGCGCCATCTAC | 0.526
15 | GATGATTGTTCTCCCAGCTGATGAATTACTATTCTCGAGTAAACAAATTTTCCTAATCTTTCTGTTCAAGCGCCATCTAC | 0.559
16 | GATGATTGTTCTCCCAGCTGATGAATTTTGCAAGTCGAGTAAACAAATTTTCCTAATCTTTCTGTTCAAGCGCCATCTAC | 3.41
17 | GATGATTGTTCTCCCAGCTGATGAATTTATGCTTTCGAGTAAACAAATTTTCCTAATCTTTCTGTTCAAGCGCCATCTAC | 1.91
18 | GATGATTGTTCTCCCAGCTGATGAATTTCGCTCATCGAGTAAACAAATTTTCCTAATCTTTCTGTTCAAGCGCCATCTAC | 0.54
19 | GATGATTGTTCTCCCAGCTGATGAATTTTAATTCTCGAGTAAACAAATTTTCCTAATCTTTCTGTTCAAGCGCCATCTAC | 0.593
20 | GATGATTGTTCTCCCAGCTGATGAATTTAGTACATCGAGTAAACAAATTTTCCTAATCTTTCTGTTCAAGCGCCATCTAC | 0.776

Row | Sequence | binding signal (RPM ratio (pull-down/input))
21 | GATGATTGTTCTCCCAGCTGATGAATTCACCGCCTCGAGTAAACAAATTTTCCTAATCTTTCTGTTCAAGCGCCATCTAC | 0.515
22 | GATGATTGTTCTCCCAGCTGATGAATTCCTAGCTTCGAGTAAACAAATTTTCCTAATCTTTCTGTTCAAGCGCCATCTAC | 0.265
23 | GATGATTGTTCTCCCAGCTGATGAATTAGAGTCCTCGAGTAAACAAATTTTCCTAATCTTTCTGTTCAAGCGCCATCTAC | 0.493
24 | GATGATTGTTCTCCCAGCTGATGAATTCCGGCGCTCGAGTAAACAAATTTTCCTAATCTTTCTGTTCAAGCGCCATCTAC | 0.332
25 | GATGATTGTTCTCCCAGCTGATGAATTCTCAAACTCGAGTAAACAAATTTTCCTAATCTTTCTGTTCAAGCGCCATCTAC | 0.238
26 | GATGATTGTTCTCCCAGCTGATGAATTGACTCCGTCGAGTAAACAAATTTTCCTAATCTTTCTGTTCAAGCGCCATCTAC | 0.306
27 | GATGATTGTTCTCCCAGCTGATGAATTTGTTCTCTCGAGTAAACAAATTTTCCTAATCTTTCTGTTCAAGCGCCATCTAC | 2.14
28 | GATGATTGTTCTCCCAGCTGATGAATTAGGTCGATCGAGTAAACAAATTTTCCTAATCTTTCTGTTCAAGCGCCATCTAC | 0.303
29 | GATGATTGTTCTCCCAGCTGATGAATTCGTGCATTCGAGTAAACAAATTTTCCTAATCTTTCTGTTCAAGCGCCATCTAC | 6.29
30 | GATGATTGTTCTCCCAGCTGATGAATTCGTCAGATCGAGTAAACAAATTTTCCTAATCTTTCTGTTCAAGCGCCATCTAC | 0.227
31 | GATGATTGTTCTCCCAGCTGATGAATTCTCTATCTCGAGTAAACAAATTTTCCTAATCTTTCTGTTCAAGCGCCATCTAC | 0.282
32 | GATGATTGTTCTCCCAGCTGATGAATTGCTAACGTCGAGTAAACAAATTTTCCTAATCTTTCTGTTCAAGCGCCATCTAC | 0.632
33 | GATGATTGTTCTCCCAGCTGATGAATTTAGCCGTTCGAGTAAACAAATTTTCCTAATCTTTCTGTTCAAGCGCCATCTAC | 1.08
34 | GATGATTGTTCTCCCAGCTGATGAATTTGCATATTCGAGTAAACAAATTTTCCTAATCTTTCTGTTCAAGCGCCATCTAC | 2.72
35 | GATGATTGTTCTCCCAGCTGATGAATTGTCTGGTTCGAGTAAACAAATTTTCCTAATCTTTCTGTTCAAGCGCCATCTAC | 0.341
36 | GATGATTGTTCTCCCAGCTGATGAATTACAGTTATCGAGTAAACAAATTTTCCTAATCTTTCTGTTCAAGCGCCATCTAC | 0.992
37 | GATGATTGTTCTCCCAGCTGATGAATTTCCACGATCGAGTAAACAAATTTTCCTAATCTTTCTGTTCAAGCGCCATCTAC | 0.211
38 | GATGATTGTTCTCCCAGCTGATGAATTAACTGACTCGAGTAAACAAATTTTCCTAATCTTTCTGTTCAAGCGCCATCTAC | 0.33
39 | GATGATTGTTCTCCCAGCTGATGAATTGCCCAAGTCGAGTAAACAAATTTTCCTAATCTTTCTGTTCAAGCGCCATCTAC | 0.333
40 | GATGATTGTTCTCCCAGCTGATGAATTCCCGTTGTCGAGTAAACAAATTTTCCTAATCTTTCTGTTCAAGCGCCATCTAC | 0.526
